# Whole data set: some 81,000 sequences, median “one-hybrid fitness for binding parS DNA” near -0.17, cut for the highest 2% near 0.51. Some of the results follow.
# B1: Caulobacter ParB omega fusion; a variant is named by its letters at X, in order, B8GW30 (parent)
# chain: MESVVVGEPGMSEGRRGLGRGLSALLGEVDAAPAQAPGEQLGGSREAPIEILQRNPDQPRRTFREEDLEDLSNSIREKGVLQPILVRPSPDTAGEYQIVAGERAWRAAQRAGLKTVPIMVRELDDLAVLEIGIIENVQRADLNVLEEALSYKVLMEKFERTQENIAQTIGKSXSHVANXMRLLXLPDEVQSYLVSGELTAXHARAIAAAADPVALAKQIIEGGLSVRETEALARKAPNLSAGKSKGGRPPRVKDTDTQALESDLSSVLGLDVSIDHRGSTGTLTITYATLEQLDDLCNRLTRGI
# Variants of: B1
# Experiment: one-hybrid fitness for binding parS DNA (scaled: cognate 1, non-cognate 0); higher = stronger binding
# Settings: with parS DNA site
# Method in brief: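 Selection: bacterial one-hybrid in E. coli USO, HIS3 reporter with the site 19 bp from the promoter, 48 hours at 37°C on M9-minus-histidine plus 0.1 mM IPTG and 5 mM 3-AT. Libraries were Caulobacter ParB with four randomised specificity codons, sequenced on Illumina before and after selection. Fitness is the rescaled log change in variant-to-wild-type read ratio, anchored to the cognate and non-cognate sites.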
row,Variant,one-hybrid fitness for binding parS DNA
1,VQAC,≤ 0.2
2,MHRW,≤ 0.2
3,QQNK,≤ 0.2
4,IQRY,≤ 0.2
5,NESL,≤ 0.2
6,KADW,≤ 0.2
7,MPQG,≤ 0.2
8,YKPY,≤ 0.2
9,QPAA,≤ 0.2
10,QKYS,≤ 0.2
11,SESG,≤ 0.2
12,IPYG,≤ 0.2
13,FRMS,≤ 0.2
14,AALV,≤ 0.2
15,THLK,≤ 0.2
16,GNCR,≤ 0.2
17,EWQK,≤ 0.2
18,KLNN,≤ 0.2
19,CVAD,≤ 0.2
20,CNSG,≤ 0.2
21,QVGW,≤ 0.2
22,RQSK,≤ 0.2
23,QPPD,≤ 0.2
24,QTNH,≤ 0.2

row,Variant,one-hybrid fitness for binding parS DNA
1,WVTS,≤ 0.2
2,CANM,≤ 0.2
3,AATS,≤ 0.2
4,ITTW,≤ 0.2
5,CGVR,≤ 0.2
6,TPEN,≤ 0.2
7,EAQG,≤ 0.2
8,HSRN,≤ 0.2
9,IKKC,≤ 0.2
10,SKHR,≤ 0.2
11,KYQK,≤ 0.2
12,REMS,0.234
13,RLYY,0.497
14,PGCM,≤ 0.2
15,AKDG,≤ 0.2
16,TRDG,≤ 0.2
17,TLSD,≤ 0.2
18,IDVM,≤ 0.2
19,TPHL,≤ 0.2
20,CSTT,≤ 0.2
21,TWHK,≤ 0.2
22,TEFV,≤ 0.2
23,TCRL,≤ 0.2
24,TALQ,≤ 0.2

row,Variant,one-hybrid fitness for binding parS DNA
1,PEVK,≤ 0.2
2,IASL,≤ 0.2
3,TNAI,≤ 0.2
4,THDE,≤ 0.2
5,RFVF,≤ 0.2
6,PNTR,≤ 0.2
7,RPMH,≤ 0.2
8,GPGS,≤ 0.2
9,SWPI,≤ 0.2
10,RREK,≤ 0.2
11,PMCG,≤ 0.2
12,RGKK,≤ 0.2
13,MQAC,≤ 0.2
14,KRPQ,≤ 0.2
15,LAQS,≤ 0.2
16,TRWN,≤ 0.2
17,FLSA,≤ 0.2
18,RGPE,≤ 0.2
19,ARKL,≤ 0.2
20,TTVC,≤ 0.2
21,WWSC,≤ 0.2
22,KQNS,≤ 0.2
23,LRRP,≤ 0.2
24,YFNG,≤ 0.2

row,Variant,one-hybrid fitness for binding parS DNA
1,VKPT,≤ 0.2
2,GGLH,≤ 0.2
3,RTQM,0.352
4,GCLR,≤ 0.2
5,ANMM,≤ 0.2
6,NQSL,≤ 0.2
7,TTCT,≤ 0.2
8,FKSW,≤ 0.2
9,GRTD,≤ 0.2
10,SHFP,≤ 0.2
11,IPRV,≤ 0.2
12,TQGF,≤ 0.2
13,TLCH,≤ 0.2
14,VSGL,≤ 0.2
15,VGGP,≤ 0.2
16,HRWC,≤ 0.2
17,LPKG,≤ 0.2
18,DRKG,≤ 0.2
19,HWFG,≤ 0.2
20,CFPE,≤ 0.2
21,RQFC,0.816
22,TDEM,≤ 0.2
23,YPTS,≤ 0.2
24,ARAV,≤ 0.2

row,Variant,one-hybrid fitness for binding parS DNA
1,CSRM,≤ 0.2
2,HIWY,≤ 0.2
3,PAAK,≤ 0.2
4,WVCC,≤ 0.2
5,ATTW,≤ 0.2
6,EKTI,≤ 0.2
7,WMVV,≤ 0.2
8,QIND,≤ 0.2
9,FYAC,≤ 0.2
10,GIGT,≤ 0.2
11,PTLN,≤ 0.2
12,GVIC,≤ 0.2
13,GPTT,≤ 0.2
14,QHQS,≤ 0.2
15,LRKV,≤ 0.2
16,DQMC,≤ 0.2
17,AKYA,≤ 0.2
18,KAAQ,≤ 0.2
19,WRGA,≤ 0.2
20,CWAS,≤ 0.2
21,IWSS,≤ 0.2
22,ATVQ,≤ 0.2
23,RFSY,0.446
24,KQSW,≤ 0.2

row,Variant,one-hybrid fitness for binding parS DNA
1,NGWN,≤ 0.2
2,QQYY,≤ 0.2
3,NIRE,≤ 0.2
4,SHMG,≤ 0.2
5,LVTA,≤ 0.2
6,PDPV,≤ 0.2
7,CWIG,≤ 0.2
8,QGGT,≤ 0.2
9,WQTG,≤ 0.2
10,TLEF,≤ 0.2
11,VCFE,≤ 0.2
12,ALAM,≤ 0.2
13,SARK,≤ 0.2
14,SAFA,≤ 0.2
15,QNWD,≤ 0.2
16,GGRA,≤ 0.2
17,KGPG,≤ 0.2
18,TMIK,≤ 0.2
19,PFTQ,≤ 0.2
20,PCVC,≤ 0.2
21,VDHF,≤ 0.2
22,QRQH,≤ 0.2
23,SGSL,≤ 0.2
24,HRHK,≤ 0.2

row,Variant,one-hybrid fitness for binding parS DNA
1,CTQG,≤ 0.2
2,FGKF,≤ 0.2
3,NQLE,≤ 0.2
4,NCPF,≤ 0.2
5,MWEC,≤ 0.2
6,VRRW,≤ 0.2
7,PAFT,≤ 0.2
8,NGRD,≤ 0.2
9,LNVR,≤ 0.2
10,QDNF,≤ 0.2
11,NGNR,≤ 0.2
12,HHTP,≤ 0.2
13,SNFT,≤ 0.2
14,PEAW,≤ 0.2
15,MCLL,≤ 0.2
16,YSTY,≤ 0.2
17,PIPI,≤ 0.2
18,VWNS,≤ 0.2
19,AHNS,≤ 0.2
20,LHCG,≤ 0.2
21,LSVI,≤ 0.2
22,KESF,≤ 0.2
23,QTGL,≤ 0.2
24,YMCS,≤ 0.2

row,Variant,one-hybrid fitness for binding parS DNA
1,TRNV,≤ 0.2
2,VRIM,≤ 0.2
3,TPGD,≤ 0.2
4,TGRF,≤ 0.2
5,SNWL,≤ 0.2
6,QYLE,≤ 0.2
7,RYAM,0.267
8,FTKR,≤ 0.2
9,RYLW,0.218
10,NTPY,≤ 0.2
11,PVVT,≤ 0.2
12,QSAE,≤ 0.2
13,PFYD,≤ 0.2
14,PDSY,≤ 0.2
15,GKVW,≤ 0.2
16,KPPL,≤ 0.2
17,CQAW,≤ 0.2
18,FIGR,≤ 0.2
19,WSAT,≤ 0.2
20,LFEY,≤ 0.2
21,SAWL,≤ 0.2
22,RTDV,≤ 0.2
23,TSDI,≤ 0.2
24,NAGP,≤ 0.2

row,Variant,one-hybrid fitness for binding parS DNA
1,HCME,≤ 0.2
2,DADN,≤ 0.2
3,GLTS,≤ 0.2
4,LVGV,≤ 0.2
5,PITY,≤ 0.2
6,QPDC,≤ 0.2
7,KRLC,≤ 0.2
8,KPVR,≤ 0.2
9,SSTS,≤ 0.2
10,YARQ,≤ 0.2
11,HKGL,≤ 0.2
12,SSDF,≤ 0.2
13,QHKC,≤ 0.2
14,SCSE,≤ 0.2
15,TRIR,≤ 0.2
16,AIVI,≤ 0.2
17,LYNR,≤ 0.2
18,TTMT,≤ 0.2
19,DESV,≤ 0.2
20,SPAC,≤ 0.2
21,YCLC,≤ 0.2
22,ATEM,≤ 0.2
23,AIWV,≤ 0.2
24,NGEY,≤ 0.2

row,Variant,one-hybrid fitness for binding parS DNA
1,RNIY,≤ 0.2
2,CTHE,≤ 0.2
3,ALKS,≤ 0.2
4,FAPI,≤ 0.2
5,EGRL,≤ 0.2
6,PDSW,≤ 0.2
7,MQIV,≤ 0.2
8,GGIC,≤ 0.2
9,PHAT,≤ 0.2
10,MVNF,≤ 0.2
11,YGKV,≤ 0.2
12,RLNL,≤ 0.2
13,QCKF,≤ 0.2
14,LHTR,≤ 0.2
15,FSHM,≤ 0.2
16,YAPI,≤ 0.2
17,AHRN,≤ 0.2
18,IVNQ,≤ 0.2
19,CNVE,≤ 0.2
20,RMIV,≤ 0.2
21,AKYL,≤ 0.2
22,WKPG,≤ 0.2
23,RKTY,0.353
24,RWHK,≤ 0.2

row,Variant,one-hybrid fitness for binding parS DNA
1,IDCI,≤ 0.2
2,GRWG,≤ 0.2
3,LCCF,0.3
4,LRRD,≤ 0.2
5,RSIG,0.822
6,SCRT,≤ 0.2
7,LRRR,≤ 0.2
8,CRAW,≤ 0.2
9,GNFS,≤ 0.2
10,VTAN,≤ 0.2
11,CDVV,≤ 0.2
12,PDAV,≤ 0.2
13,FSPY,≤ 0.2
14,VARR,≤ 0.2
15,PEEM,≤ 0.2
16,ALAY,≤ 0.2
17,EWVR,≤ 0.2
18,QMSI,≤ 0.2
19,SPNQ,≤ 0.2
20,PWFF,≤ 0.2
21,SKIC,≤ 0.2
22,YAHC,≤ 0.2
23,HKLL,≤ 0.2
24,YACS,≤ 0.2

row,Variant,one-hybrid fitness for binding parS DNA
1,SVHK,≤ 0.2
2,RILF,0.269
3,GLDM,≤ 0.2
4,DEPI,≤ 0.2
5,PQNT,≤ 0.2
6,TESS,≤ 0.2
7,RVQT,0.913
8,EWPG,≤ 0.2
9,CAAQ,≤ 0.2
10,TSFG,≤ 0.2
11,YPIW,≤ 0.2
12,PTIP,≤ 0.2
13,QHQY,≤ 0.2
14,RMGL,≤ 0.2
15,WADS,≤ 0.2
16,LINR,≤ 0.2
17,HILV,≤ 0.2
18,VGLM,≤ 0.2
19,QYKR,≤ 0.2
20,PTHV,≤ 0.2
21,DGMG,≤ 0.2
22,IRSP,≤ 0.2
23,TWKK,≤ 0.2
24,RRGK,≤ 0.2

row,Variant,one-hybrid fitness for binding parS DNA
1,TFVH,≤ 0.2
2,TGEM,≤ 0.2
3,TRNH,≤ 0.2
4,NLKG,≤ 0.2
5,PYCG,≤ 0.2
6,PCTM,≤ 0.2
7,VSSA,≤ 0.2
8,IQAL,≤ 0.2
9,RKKV,≤ 0.2
10,QPHI,≤ 0.2
11,AEYE,≤ 0.2
12,FCSN,≤ 0.2
13,MQNA,≤ 0.2
14,KLEF,≤ 0.2
15,EGVT,≤ 0.2
16,TSCM,≤ 0.2
17,HTVN,≤ 0.2
18,PCLA,≤ 0.2

# Source: a collection of fitness landscapes (doi:10.1016/j.celrep.2020.107928)
